Results from paper PMC4336329 (PLoS ONE, 2015).
Among all 310,000 compounds or so, about 14,000 (4.5%) showed an effect of 50% or more. The effect is printed as a negative number. The list shows a part of the results.

target: human ether-à-go-go-related gene (hERG) potassium channel (human, UniProt Q12809); experiment: primary screen, population patch clamp on CHO cells stably expressing hERG
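Also: peak tail current of the secondary pulse compared with the same well before compound.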

Chain of human ether-à-go-go-related gene (hERG) potassium channel (Q12809 whole entry, looked up): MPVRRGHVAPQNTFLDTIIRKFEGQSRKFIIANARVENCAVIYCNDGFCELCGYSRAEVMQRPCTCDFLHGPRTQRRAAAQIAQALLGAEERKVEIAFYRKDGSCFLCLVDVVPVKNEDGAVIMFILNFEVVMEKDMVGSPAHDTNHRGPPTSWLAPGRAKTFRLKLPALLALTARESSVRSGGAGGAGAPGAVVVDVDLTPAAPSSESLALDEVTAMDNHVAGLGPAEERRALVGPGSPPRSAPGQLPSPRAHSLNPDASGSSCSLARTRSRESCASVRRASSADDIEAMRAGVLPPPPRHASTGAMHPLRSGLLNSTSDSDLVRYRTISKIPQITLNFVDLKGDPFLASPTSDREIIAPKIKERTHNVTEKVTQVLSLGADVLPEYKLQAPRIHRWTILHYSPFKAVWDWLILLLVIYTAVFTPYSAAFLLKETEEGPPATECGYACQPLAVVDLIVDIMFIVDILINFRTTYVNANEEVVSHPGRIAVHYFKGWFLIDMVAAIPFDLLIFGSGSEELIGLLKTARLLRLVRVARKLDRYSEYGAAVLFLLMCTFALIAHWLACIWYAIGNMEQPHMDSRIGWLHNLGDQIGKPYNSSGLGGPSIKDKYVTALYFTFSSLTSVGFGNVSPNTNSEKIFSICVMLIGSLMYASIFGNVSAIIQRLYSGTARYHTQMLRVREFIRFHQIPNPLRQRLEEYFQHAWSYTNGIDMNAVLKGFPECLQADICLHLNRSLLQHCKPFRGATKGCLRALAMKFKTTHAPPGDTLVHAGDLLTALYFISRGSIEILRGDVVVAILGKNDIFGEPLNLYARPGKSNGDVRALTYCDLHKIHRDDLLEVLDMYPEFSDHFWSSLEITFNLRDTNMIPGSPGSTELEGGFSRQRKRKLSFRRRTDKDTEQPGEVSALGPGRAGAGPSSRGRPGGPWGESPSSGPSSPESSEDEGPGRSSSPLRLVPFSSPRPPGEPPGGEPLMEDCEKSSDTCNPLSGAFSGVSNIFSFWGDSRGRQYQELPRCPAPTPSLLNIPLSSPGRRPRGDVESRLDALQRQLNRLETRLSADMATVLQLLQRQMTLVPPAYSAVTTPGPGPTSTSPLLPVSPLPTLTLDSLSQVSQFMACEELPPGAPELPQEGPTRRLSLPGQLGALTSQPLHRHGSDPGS

SMILES	hERG current change (%, negative = inhibition) at 10uM
C/C=C/c1ccc(OCCOc2ccc(C=O)cc2)c(OC)c1	18.8%
O=[N+]([O-])c1ccc(COn2nnc3ccccc32)cc1	0.91%
CC(=O)N1C(C(=O)O)CSC1c1ccc(C)cc1 (stereo not drawn)	9.78%
O=C1CC2(CCN(C(=O)c3ccc(Cl)cc3)CC2)Oc2ccccc21	-87.8%
O=C(C1CC(Cl)CN1S(=O)(=O)c1ccc(Cl)cc1)N1CCOCC1 (stereo not drawn)	13.4%
CCOc1ccc(CNC(=O)c2ccc(Sc3ccc(C)cc3)c(NC(C)=O)c2)cc1	-4.85%
C=CCn1c(C)cc(C(=O)CN2C(=O)c3ccccc3S2(=O)=O)c1C	-3.98%
Cc1ccc(CNC(C)c2ccccc2)cc1.Cl (stereo not drawn)	-8.59%
COC(=O)CSc1ccc(S(=O)(=O)N2CCC(C)CC2)cc1[N+](=O)[O-]	-1.16%
COc1cccc(/C=C2\SC(=O)NC2=O)c1OCc1ccc(C(=O)O)cc1	9.69%
CCCOC(=O)C1=C(C)NC(=O)NC1c1ccc(Br)s1 (stereo not drawn)	9.9%
CCOc1ccc(N2CC(C(=O)NCCCc3ccccc3)CC2=O)cc1 (stereo not drawn)	-51.2%
CC(=O)Nc1ccc(C)c(NC(=S)Nc2ccc(F)cc2)c1	14.9%
Cc1ccc(NS(=O)(=O)c2cccc(C(=O)NCC3CCCO3)c2)cc1 (stereo not drawn)	-10%
CC(=O)c1ccc(-c2nnc(CCC(=O)N(C)Cc3cnc4ccccn34)o2)s1	13.3%
Cc1ccc(CNC(=O)Cn2cnc3c(NC(=O)OCc4ccccc4)ncnc32)o1	-36.4%
O=[N+]([O-])c1ccc2sc(SCc3nc4ccccn4c3Br)nc2c1	20.2%
O=[N+]([O-])c1nn(-c2ccc3c(c2)OCCO3)n(O)c1=NCCCO	-2.56%
CN(C)c1ccc(NC(=O)CN2CCc3ccccc3C2)cc1	-6.48%
COc1ccc(C(C)C)cc1S(=O)(=O)Nc1ccc(Cl)cn1	10.7%
Cc1ccc(CNCCCSc2nc(C)cc(C)n2)cc1.Cl	-52.3%
CC(C)c1ccc(NC2CCCN(C(=O)c3cnc4ccccn4c3=O)C2)cc1 (stereo not drawn)	12%
Cc1nnc(NC(=O)c2nc(S(=O)(=O)Cc3ccccc3C)ncc2Cl)s1	20.3%

SMILES	hERG current change (%, negative = inhibition) at 10uM
Cl.O=C(NCCN1CCCC1)c1ccc(Cl)cc1	-15.3%
CN(C)C(=O)COc1ccc2c3c(c(=O)oc2c1)CCCC3	14.6%
Cc1ccc(S(=O)(=O)Oc2ccc(/C=C3/C(=N)N4C(=NC3=O)SN=C4S(C)(=O)=O)cc2)cc1	9.53%
CCN(CC)CCn1c2c(c(SCC(=O)Nc3ccc(F)c(F)c3)nc1=O)CCC2	-70.5%
COc1cc(/C=N/NC(=O)c2cccnc2)cc2c1OCO2	10.7%
CCC(C)(C)NC(=O)CN(Cc1ccccc1Cl)C(=O)CCC(=O)Nc1cc(C)ccn1	-4.7%
O=c1c2ccccc2nnn1Cc1cccc2ccccc12	-1.1%
CCOc1ccc(CNn2nnnc2N)cc1	-6.35%
CC1(C)CC(=O)C(N=Nc2ccc3ncsc3c2)=C(O)C1	-3.67%
CCOc1ccccc1NC(=O)c1c(Br)cnn1C	1.22%
COc1cccc(C(=O)Nc2cc(C)c3c(=O)oc4ccccc4c3n2)c1	5.5%
CCSc1nnc(NC(=O)c2cc3c(s2)CCCC3)s1	5.22%
CCOC(=O)Cn1c(=O)oc2cc(S(=O)(=O)NC3CCCCC3)ccc21	4.56%
CS(=O)(=O)N(Cc1ccc(C(=O)NCCSCc2ccco2)cc1)c1ccccc1	-7.95%
Cc1onc(-c2ccccc2)c1CNC(=O)Nc1cccc(Cl)c1	-18.4%
O=C(O)c1ccccc1C(=O)Nc1ccc(Br)c2cccnc12	14.5%
CC(c1ccccc1)n1cc(C(=O)NCC2CCCO2)nn1 (stereo not drawn)	7.46%
Cc1nnc(NC(=O)CSc2nnc(C)c(=O)n2N)s1	1.97%
O=C1/C(=C\Nc2ccc(Cl)cc2)CCN1c1ncccn1	-27%
c1ccc2[nH]c3cc4ncnc4cc3nc2c1	6.35%
CCOc1ccc(/C=N/NC(=S)NC2CC3CC2C2C=CCC32)cc1 (stereo not drawn)	6.33%
CN1CCN(/N=C/c2nc(-c3ccccc3Cl)n3ccccc23)CC1	-34.1%
